Laboratory results published in the supplement of paper PMC3334620.
Whole data set: some 33,000 sequences, median “E-score (-0.5 to 0.5)” near -0.017, cut for the highest 2% near 0.3. Some of the results follow.

molecular target: T1, Sut1 (UniProt P53032); test: PBM E-score (8-mer binding enrichment) (E-score (-0.5 to 0.5)); higher = stronger / more preferred TF binding; most listed sequences are background and not binding sites; conditions: protein concentration: 200 nM; construct: GST-full length
T1 sequence: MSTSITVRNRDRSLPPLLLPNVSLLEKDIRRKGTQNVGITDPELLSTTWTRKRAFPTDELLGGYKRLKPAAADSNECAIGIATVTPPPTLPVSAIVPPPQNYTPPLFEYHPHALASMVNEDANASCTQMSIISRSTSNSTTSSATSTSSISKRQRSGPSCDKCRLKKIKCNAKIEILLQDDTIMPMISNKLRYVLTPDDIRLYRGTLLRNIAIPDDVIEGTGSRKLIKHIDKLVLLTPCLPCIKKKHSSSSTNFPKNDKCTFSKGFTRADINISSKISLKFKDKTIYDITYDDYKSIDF
In short: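 The E-score, a modified Wilcoxon-Mann-Whitney statistic, was computed by the Universal PBM Analysis Suite for every ungapped eight-base word pooled with its reverse complement. Scans behind it were normalised with masliner after bound GST-tagged yeast transcription factors were detected with fluorescent anti-GST. The proteins, at about 100-200 nM, had been applied to universal all-10-mer Agilent arrays made double-stranded by primer extension.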

Sequence | PBM E-score
CGGCAACC | -0.151
CAGTCTAC | -0.131
ACTACTTC | 0.0508
TAACATAA | 0.234
GACCGCTA | -0.176
GAATGCTA | -0.0777
GGTATAAA | 0.221
CCTTCATC | -0.00832
ACACCACC | -0.215
GGCTTCTA | -0.021
ATTCTGTG | 0.201
GCCATTCC | -0.0862
GGACTCGA | 0.0681
TACCACGA | -0.0196
CGAAGCTC | -0.037
ATTGGTTC | 0.129
ATTGCGCA | -0.0406
ATACGGTC | -0.162
AAGCGAGG | -0.0277
CGGAATGA | 0.18
AGACAGAG | -0.0452
ATGCAGCC | -0.0379
CGACACAC | -0.0186
GATCGAGA | -0.00475
CAAAACCG | 0.141

Sequence | PBM E-score
ATGTGAAA | 0.103
ACCACCAA | -0.0399
ACAATTCT | 0.101
GCTGTAGA | -0.0872
CTCAGTGA | -0.26
AAGTGCTC | -0.305
ATGATCAG | 0.0134
CAGTAGTA | -0.0903
TCGCATCA | 0.0509
GAGTATCA | 0.186
CATAGACC | -0.129
ATGCTGTA | -0.0444
GAGTATCC | 0.0482
GGGTTCAC | -0.0207
GGGATCTA | -0.104
AACGCAGT | -0.045
ATAGCCGA | 0.165
TCGTCCCA | -0.269
CTAACAGC | -0.0894
AATATATA | 0.325
CAGCCCTA | -0.141
ATTTGTAA | 0.191
ATTTCGTG | 0.11
AGGACCCG | -0.173
GAACCTTA | 0.219

Sequence | PBM E-score
ATGGTTGG | 0.0746
AGTAATGG | 0.0811
AATCGGAA | 0.38
AGCTTCCT | 0.0814
AAAACCGT | 0.0363
GGGGAGGA | -0.223
CGCCAACA | 0.0475
CTTCTACA | 0.0611
GCAGGGAA | 0.0261
CTTGTAAA | 0.211
AGTTCGCG | -0.0451
ATAAAGCG | 0.0732
GATGAGAA | -0.0707
CCGTCCGC | -0.0619
CAGGGTGC | -0.248
AAGCAACA | 0.0472
AAATAGAC | 0.122
AGAGGTTG | -0.0996
GTACCATA | -0.106
CGTACGTC | -0.156
GTCCAAAC | -0.0427
AACAGAGG | -0.193
ACTCACAC | -0.0996
GCGAGGAA | 0.0765
GGCTCCAC | -0.197

Sequence | PBM E-score
GATGGTCC | -0.104
ACGCAATA | -0.0184
GACGTCCA | 0.00522
TATGTTGA | 0.109
CCAGGACA | -0.0809
ACACTTAC | 0.0992
AGTCAAGG | -0.139
GCTCGAAC | -0.0952
CGGTTAGA | 0.0398
CCCCGAGG | 0.11
ACATTGCA | -0.106
ACGTTCTG | -0.235
AACGCCCG | -0.0958
CATGAAGC | -0.0952
CTAGAACC | -0.0226
ATCCGCAT | -0.0548
CGATCTCA | -0.0333
AAACTTGT | 0.102
GGGCCGAA | -0.0697
GTATACCA | -0.0149
AAACACTA | 0.152
AAAAGGGA | -0.0887
CCTAACGA | 0.00922
AACATGCG | -0.0531
CTCCCCGC | 0.1

Sequence | PBM E-score
AGGAAGTA | 0.0793
AAAAAGAT | 0.227
AGGATGCG | -0.116
GTTCCGTA | 0.181
ACTAGAAG | 0.0116
CGGCTAAA | 0.193
GACGCGTC | -0.325
GGGGGTCA | -0.262
AGAATTCG | 0.191
TGTTTGAA | 0.158
ACGTGGTG | -0.133
ATGGCACC | -0.216
CGCGTTGC | -0.017
CTTGACCA | -0.111
AGTTTTAC | 0.113
CGGGTGCC | -0.0574
ACTGTAAC | 0.0291
CAGTTGAA | -0.00817
ACGCATCA | -0.0138
CGGTCAAG | -0.09
AAGTAGCG | -0.0369
CAAGTTCC | -0.0474
AGATAGAG | 0.098
GAACCAGA | -0.185
GGCCCCGA | -0.074

Sequence | PBM E-score
GGCGGAGA | 0.23
GCATCGGC | -0.241
GTAGGTTA | 0.0304
GTCTAAGA | 0.0877
GCGTACCC | -0.149
ACCTTTAT | -0.051
AGGAGACA | -0.0333
CTGGGTTC | -0.0566
GTAAGAGA | -0.0287
CAATTCGC | 0.0979
CACTGCGA | -0.139
ACGTGCTA | -0.0868
CTTCTCAA | 0.0485
CTCTATTC | -0.0453
GTTTTACA | -0.0491
GTAATGAC | -0.0353
ATCCACGC | -0.15
GGTCCCTA | -0.185
CGATATAC | 0.0393
CTGTCGTA | 0.0251
GCCCTCAA | -0.171
ACCGGAGA | 0.43
CGTAGAGA | -0.0869
CTCGCCGC | -0.036
AACCCGAG | 0.0811

Sequence | PBM E-score
ATCCAGGC | -0.187
CTCTAGCC | -0.0604
GGAAGCCC | -0.0417
CCGAAGAC | 0.0905
CGCGTTGA | -0.0478
AACTCTCA | -0.14
CTCCTGGC | -0.147
AGTAAGAT | 0.0546
GACTGGAA | 0.00283
CGGAGAAG | 0.36
CTTACGGA | 0.187
CCCACAAA | 0.105
AAATAGTG | 0.22
CATCAAAC | 0.117
GGGTTGGA | -0.00878
CAGTGGGA | -0.235
CCAGTCGA | -0.113
AATCGGAT | 0.183
AGTCTTCG | 0.0103
GGGAACGA | -0.123
ACAGACCT | -0.056
GATCTACA | 0.0127
CAAAGGTC | -0.194
AAAATTCA | 0.246
ACGGTTGA | -0.0185

Sequence | PBM E-score
AGTACCCG | -0.0492
TCTACCAA | 0.0475
ACCCTGGA | -0.343
AGGGCAGA | -0.348
ATCGAGCG | -0.103
CCCTGTCA | -0.272
AATGCAAT | -0.0202
CGAACCAG | 0.00064
GGTTGTTA | 0.0738
TAAGTATA | 0.294
GCGAGTAA | 0.14
ATCACCGA | 0.0738
TCCCCAGA | -0.257
ATAGACCA | -0.0792
CATTGCGC | -0.0585
AATTCCCT | -0.0468
GGCACCAC | -0.204
AACTGTGC | -0.138
CAAGCTCC | -0.0454
CACTAGTC | -0.101
TCAGAACA | 0.0225
GCTGTCAA | -0.127
AAGGAAGG | -0.112
GTGCACTA | -0.0693
CGGTAAGA | -0.0105

Sequence | PBM E-score
AAGTGAGT | -0.105
ACCAGTGC | -0.226
CCCACGGG | -0.285
AGTAATAC | 0.133
GGCGCAAC | -0.0341
AGTGAATA | 0.177
ACCTCTAG | -0.0682
AAAGTAAC | 0.198
ACGCCCAA | -0.0293
CGGCTGGA | -0.177
ATATTGCC | -0.0405
AACACACC | 0.0401
AGTACATC | 0.0401
ACAAAGTA | 0.0818
CGACAGTA | -0.00381
AGGCGCCC | -0.224
CCAGTTGC | -0.142
TGCCCCCA | -0.308
ACAGCGAA | -0.00091
